Our source for the inhibition values is PubChem BioAssay AID485344 (National Center for Advancing Translational Sciences (NCATS), 2010).

Usually inhibition stands for the change of the read-out against control, counted positive when it falls.

Molecules are shown by their SMILES. Out of some 340,000 compounds screened, about 6,900 (2%) were called active. Rule as the data show it: active = inhibition above about 30%; inactive = below that, where a call was filed. This is a selection; strong and weak results do not stand in their true shares. The source gives no active or inactive call for entries shown without one.

This assay concerns the target D(2) dopamine receptor (Homo sapiens) (UniProt P14416). In words: HTS Assay for Allosteric Antagonists of the Human D2 Dopamine Receptor: Primary Screen for Antagonists. Also: 0% is about no effect. The note with it: HEK293 TREx D2 cells, calcium flux, dopamine EC80; at 10 µM; stronger effect = higher value. A digest of the protocol: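 Compounds are added to dye-loaded, induced HEK293 T-REx cells coupled to calcium release via D2; after a 3 min kinetic read an EC80 dopamine stimulus is given and fluorescence is recorded for 3 more min.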
Chain of UniProt P14416 (P14416 whole entry, looked up): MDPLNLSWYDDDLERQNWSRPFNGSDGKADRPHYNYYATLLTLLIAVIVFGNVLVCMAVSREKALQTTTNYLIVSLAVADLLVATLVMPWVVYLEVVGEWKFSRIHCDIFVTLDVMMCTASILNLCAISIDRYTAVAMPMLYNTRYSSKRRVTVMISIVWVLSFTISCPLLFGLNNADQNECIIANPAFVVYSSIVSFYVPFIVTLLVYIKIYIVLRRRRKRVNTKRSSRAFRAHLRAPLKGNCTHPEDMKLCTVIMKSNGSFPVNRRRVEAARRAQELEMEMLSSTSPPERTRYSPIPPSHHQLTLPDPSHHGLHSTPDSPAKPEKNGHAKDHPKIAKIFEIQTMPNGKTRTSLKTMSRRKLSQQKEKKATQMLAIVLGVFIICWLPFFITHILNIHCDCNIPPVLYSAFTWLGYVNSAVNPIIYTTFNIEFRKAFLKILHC
Consider `COc1ccc(C(=O)Nc2ccc3c(c2)CCCN3S(=O)(=O)c2ccc(C)cc2)cc1`, for which the inhibition came out at 3%.
In the case of `CCCCN(CCCC)CCn1cnc2c([nH]c3ccc(OC)cc32)c1=O`, the inhibition is 21.1%.
In the case of `COc1ccc(NC(=O)c2oc3ccccc3c2NC(=O)c2cc(=O)c3ccccc3o2)cc1`, the inhibition turned out to be 13.7%.
Then `COc1ccc(CNC(=O)c2ccc(-c3nc(CSc4ccccc4)c(C)o3)cc2)cc1`, with 0.341%; and `CCOc1ccc(CCNc2ncnc3onc(C)c23)cc1OCC`, with -12.9%.
Regarding `CCOC(=O)c1c(NC(=O)C(C)Oc2ccccc2F)sc(C(C)=O)c1C` (stereo not drawn), the inhibition came out at 11.2%.
As for `COc1ccc(CCNC(=O)CCCCn2c(=O)c3ccccc3n(Cc3cccc(C)c3)c2=O)cc1OC`, the figure is -5.61%.
Consider `c1ccc(N=C(c2cccs2)N2CCOCC2)cc1`, for which the inhibition was active: 31.8%.
`CCc1ccc(NC(=O)c2ccc(CNS(=O)(=O)c3ccc4c(c3)C(C)(C)C(=O)N4C)cc2)cc1`: the inhibition is -0.884%.
Then `CCc1ccc(OCC(=O)Nc2c(C(=O)c3ccc(Br)cc3)oc3ccccc23)cc1`, with -0.345%; and `CCC(Oc1ccccc1)C(=O)Nc1nnc(S(=O)(=O)N2CCCC2)s1` (stereo not drawn), with 3.97%.
`CCOc1cccc2sc(=NC(=O)c3ccc(S(=O)(=O)N4CCOCC4)cc3)n(C)c12`: the inhibition was 11.4%.
As for `CCn1cc(C(=O)N2CCN(c3ccccc3OC)CC2)c2cc(OC)c(OC)cc2c1=O`, the figure is -3.41%; as for `Cc1ccc(-c2ocnc2C(=O)Nc2ccccc2C(=O)N2CCCC2)cc1`, active: 57.1%.
Take `Cc1ccc2nc3sc(C(=O)Nc4ccc(F)cc4)cc3cc2c1`: the inhibition worked out at 9.08%.
`CCOC(=O)c1cc(S(=O)(=O)N2CCN(c3cccc(C)c3)C(C)C2)[nH]n1` (stereo not drawn): the inhibition stood at 13.4%.
Then `COc1ccc(N2CCN(C(=O)c3c(C)oc4ncn(CC(C)C)c(=O)c34)CC2)cc1`, with -11.3%.
Then `COC(=O)c1ccc(NC(=O)C(C)N2Cc3ccccc3C2=O)cc1` (stereo not drawn), with 14.2%; and `CCC1=Nc2cc(C(=O)NC3CCCC3)ccc2Sc2ccc(Cl)cc21`, with 6.72%.
In the case of `COc1cc(CNCCSc2nnnn2C)ccc1OCc1ccccc1`, the inhibition is -11%.
As for `Cc1ccc(CNC(=O)c2cnc(N3CCCC3)nc2C)cc1`, the inhibition was found to be 5.11%.
Turning to `CCn1c(=O)cc(OCC(=O)NCCCN2CCN(c3cccc(Cl)c3)CC2)c2ccccc21`, the inhibition was active: 78.9%.
Then `Cc1cc(C)c2c(NC(=O)c3ccccc3Cl)c(C(=O)Nc3ccc(C)c(C)c3)sc2n1`, with 5.09%; and `CCc1ccccc1NC(=O)c1nnn(CC(=O)Nc2c(C)cc(C)cc2C)c1N`, with 2.48%.
Then `O=C(Cn1cccc1C(=O)c1ccccc1)NCc1ccc(Cl)cc1`, with 1.3%.
Consider `COc1ccc(NC(=O)CNC(=O)Cn2ccc3ccccc3c2=O)c(OC)c1`, for which the inhibition amounted to 1.83%.
`CCCN1CCN(CCCNC(=O)c2cc3c(=O)[nH]c4ccccc4c3s2)CC1`: the inhibition is -13.9%.
Consider `CCc1ccc(NC(=O)C2CCN(c3ccc(Sc4ccc(C)cc4)nn3)CC2)cc1`, for which the inhibition amounted to 14.4%.
Then `CC(C)C(=O)NCCSc1c[nH]c2ccccc12`, with active: 31.1%; and `CCc1ccc(C2=CC(c3cccc(OC)c3OC)n3c(nc4ccccc43)N2)cc1` (stereo not drawn), with -17.6%; and `COc1ccc(CCNC(=O)Cn2c(=O)cc(C(F)(F)F)c3c(C)nn(C)c32)c(OC)c1`, with 7.21%.
Then `CCOc1cc(CNC(=O)c2cc(-c3ccc(Cl)s3)nc3ccccc23)ccc1OC`, with 24.3%.
For `CC(=O)Nc1ccc(OCC(O)CN2CCN(c3cccc(Cl)c3)CC2)cc1` (stereo not drawn), the inhibition is active: 83%.
`Cc1ccc(N2CCN(S(=O)(=O)c3nnc(NC(=O)c4cccc(F)c4)s3)CC2)cc1`: the inhibition was -10.4%.
Then `NC(=O)C(c1ccccc1)C1CCCCC1` (stereo not drawn), with active: 52.4%.
For the compound `COCCCNc1oc(-c2ccc(COc3ccccc3C)o2)nc1C#N`, the inhibition came to 0.234%.
For the compound `COc1cc(OC)c(NC(=O)Cn2c(=O)nc(-c3ccccc3)c3ccccc32)cc1Cl`, the inhibition is -11.5%.
Consider `CC1=C(C(=O)Nc2cccc(F)c2)C2(CCCCCC2)OC1=O`, for which the inhibition amounted to 6.07%.
For the compound `COc1cccc(Cn2c(=O)n(-c3cc(C)cc(C)c3)c(=O)c3oc4ccccc4c32)c1`, the inhibition was -3.25%.
On to `Cc1ccc2c(=O)c(C(=O)c3cccc(Cl)c3)cn(CC(=O)NCc3ccccc3)c2n1`, for which the inhibition was -25.8%.
On to `COc1cccc(OCCn2c(-c3ccc(Cl)cc3)nc3ccccc3c2=O)c1`, for which the inhibition stood at 18.1%.
Regarding `CCC(CC)C(=O)Nc1cccc(-c2cn3cccnc3n2)c1`, the inhibition was -6.13%.
Then `Cc1c(Cl)cccc1-c1ccc(C(=O)Nc2ccc3oc(-c4cccnc4)nc3c2)o1`, with -9.98%; and `O=C(CCSCCc1ccccn1)Nc1ccccc1C(F)(F)F`, with -7.08%; and `CCc1ccccc1NC(=O)Cn1cc(C(=O)c2ccncc2)c(=O)c2cc(C)ccc21`, with -5.34%.
Then `COc1ccc(CCNC(=O)c2cc(-c3ccc(C)cc3)nc3n[nH]c(-c4ccc(F)cc4)c23)cc1OC`, with -2.2%.
With `Cc1ccc(-n2ncc3c(NCCc4ccccc4)ncnc32)cc1Cl`, the inhibition is -4.74%.
Then `O=C(COCc1cc(-c2ccc(F)cc2)on1)Nc1cc(Cl)cc(Cl)c1`, with -25.1%.
Regarding `O=C(N/N=C\c1cn[nH]c1-c1ccccc1)c1ccc([N+](=O)[O-])cc1`, the inhibition was active: 57.8%.
Then `Cc1ccc(N2CC(C(=O)NCCS(=O)(=O)N3CCN(c4ccc(F)cc4)CC3)CC2=O)cc1` (stereo not drawn), with -8.85%; and `O=C(CCSCc1cccc(F)c1)NCCc1ccccc1`, with -21.9%; and `CCN(CC)S(=O)(=O)c1ccc2c(c1)N(CC(=O)Nc1cccc(C(C)=O)c1)C(=O)CO2`, with 2.47%.
On to `Cc1csc(SCC(=O)Nc2ccc(C)c(F)c2)n1`, for which the inhibition is active: 36.8%.
With `O=C(Nc1ccc(Br)cc1)Nc1nc2c(s1)CCCCCC2`, the inhibition came to 3.02%.
Take `O=C(COCc1cc(-c2ccc3c(c2)OCO3)on1)Nc1cccc(O)c1`: the inhibition is -7.43%.
Then `CCC(=O)N1c2ccccc2CC1C(=O)NCCCN1CCN(c2ccc(F)cc2)CC1` (stereo not drawn), with -12.1%.
As for `Cc1cccc(C(=O)n2nc(-c3ccco3)nc2NCc2ccccc2)c1`, the inhibition was determined as 6.05%.
As for `COc1ccc(NC(=O)C(=O)Nc2ccc3nc4n(c(=O)c3c2)CCCCC4)c(OC)c1`, the figure is 1.04%; as for `CC(=O)c1c(-c2ccccc2)c2cc(Cl)ccc2[nH]c1=O`, active: 74.9%.
Then `COc1ccc(Cl)cc1S(=O)(=O)Nc1ccc2c(c1)n(C)c(=O)n2C`, with -13.6%; and `COc1ccc(OC)c(NC(=O)C(Cc2ccccc2)NS(=O)(=O)c2ccc3c(c2)CCC(=O)N3)c1` (stereo not drawn), with -13.3%.
As for `CCn1cc2nc(SCc3c(F)cccc3Cl)n(CCc3ccccc3)c(=O)c2n1`, the figure is 2.04%; as for `Cc1ccc(C)c(Cn2c(=O)n(CCc3ccccc3)c(=O)c3c(C)c(C)sc32)c1`, -1.4%; as for `COc1ccc(Cn2nc3n(c2=O)-c2ccccc2OC3)cc1`, 6.79%.
As for `Cc1ccc(-c2nnc(Nc3cccc(Br)c3)c3ccccc23)cc1S(=O)(=O)N1CCN(C)CC1`, the inhibition stood at 7%.
With `COc1ccc(CCNC(=O)c2noc3c2CCCC3)cc1OC`, the inhibition was active: 42.2%.
Then `O=C(Nc1ccccc1)c1cc2c(-c3ccccc3)nn(-c3ccccc3)c2s1`, with 18.3%; and `O=C(CSc1c2c(nc3ccc(Cl)cc13)CCCC2)N1CCN(c2ccc(Cl)cc2)CC1`, with 9.7%; and `CCOc1ccc(OC(=O)c2sc3ncn(Cc4cccc(F)c4)c(=O)c3c2C)cc1`, with 12.3%.
Then `CCOC(=O)N1CCC(N2CCN(c3ccccc3)CC2)CC1`, with active: 73.7%; and `CSc1ccc(CCNS(=O)(=O)c2cc(-c3cc(C)no3)ccc2C)cc1`, with 2.87%.
On to `C#CCOc1c(Br)cc(C2C(C(=O)OC)=C(C)NC3=C2C(=O)c2ccccc23)cc1OCC` (stereo not drawn), for which the inhibition stood at 27.3%.
Then `CCOC(=O)c1cnc2cc(Cl)c(OC)cc2c1Nc1ccc(Br)cc1C`, with 8.85%.
As for `COc1ccccc1N1CCN(C(=O)C2CCN(S(=O)(=O)c3cccs3)CC2)CC1`, the figure is -24.3%; as for `COc1ccccc1C(=O)NC1(C(F)(F)F)C(=O)NC(C)=C1C#N` (stereo not drawn), 12.1%; as for `COc1cc(OC)c(NC(=O)c2nn(C)c3c2COc2ccccc2-3)cc1Cl`, -2.34%.
On to `Cc1ccccc1NC(=O)Cn1nnc(C(=O)NCc2ccco2)c1N`, for which the inhibition came to 6%.
As for `COc1ccccc1NC(=O)CSc1ncc(CO)n1Cc1ccc(F)cc1`, the figure is 12.6%.
As for `COc1ccc2ncc3c(-c4ccccc4)nn(-c4ccc(C)c(C)c4)c3c2c1`, the figure is 11.1%; as for `CC(C)c1cnc2c(c1SCC(=O)c1ccc(Cl)cc1)c(=O)n(C)c(=O)n2C`, -2.38%; as for `Cc1cccc(C)c1OCc1n[nH]c(=S)n1N`, active: 43.2%.
For the compound `COc1cccc(CN2CCN(C(=O)c3cccs3)CC2)c1OC`, the inhibition is active: 70.9%.
Then `Cc1cccc(N2CCN(C(=O)C3CCN(S(=O)(=O)Cc4ccccc4)CC3)CC2)c1C`, with 15.4%; and `Cc1ccccc1NC(=O)Cn1c(=O)n(Cc2ccco2)c(=O)c2ccc(C(=O)NC3CCCC3)cc21`, with -9.17%; and `CC(C)(C)OC(=O)N1CCC(c2c(C(=O)NCCc3ccsc3)cnn2-c2ccc(F)cc2F)CC1`, with -0.427%.
As for `COc1ccc(Cl)cc1NC(=O)c1c(NCc2cccnc2)sc2c1CCCC2`, the figure is 0.388%; as for `CCOC(=O)c1c(Nc2ccc(OCC)cc2)nnc(-c2ccccc2)c1-c1ccccc1`, -13.4%; as for `Cc1ccccc1NC(=O)CSCn1nnc2c(=O)[nH]c(Cc3ccc(F)cc3)nc21`, -5.89%.
As for `FC(F)(F)c1cccc(OCCN2CCN(Cc3ccccc3)CC2)c1`, the figure is active: 82%.
Consider `CCCN1Cc2cccc(C(=O)Nc3ccccc3F)c2C1=O`, for which the inhibition turned out to be 14.5%.
As for `CCCC(=O)Nc1ccc2nc(SCCOc3ccccc3)sc2c1`, the figure is 11.8%; as for `COc1ccc(C2=Nc3ccc(C)cc3C(c3ccccc3)N2CC(=O)NN)cc1` (stereo not drawn), active: 108%.
Then `Cc1cccc(NC(=O)C(=O)NCC(c2cccnc2)N2CCN(Cc3ccccc3)CC2)c1` (stereo not drawn), with 19.1%; and `Cn1c(C(=O)NCCc2ccccc2)cc2cc(S(=O)(=O)N3CCCCC3)ccc21`, with 2.25%; and `CCOc1ccc(NCc2cccn2-c2nnc(N3CCC(C(=O)NCCc4ccc(OCC)c(OCC)c4)CC3)s2)cc1`, with -1.89%.
As for `CC1CN(C(=O)Nc2ccc(C(=O)NCCc3ccc(Cl)cc3)cc2)c2ccccc2S1` (stereo not drawn), the figure is 5.54%; as for `COCCn1c(C)cc(O)c(C(c2ccc(OC)cc2)N2CCCCC2)c1=O` (stereo not drawn), -3.2%; as for `Cc1ccc(NC(=O)CSCC#N)cc1`, active: 87.4%.
